In article PMC4336329 (PLoS ONE, 2015):
Among all 310,000 compounds or so, about 14,000 (4.5%) showed an effect of 50% or more. Effects have a minus sign here. Some of the results follow.

molecular target: human ether-à-go-go-related gene (hERG) potassium channel (human, UniProt Q12809); assay: primary screen, population patch clamp on CHO cells stably expressing hERG
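Also: peak tail current of the secondary pulse compared with the same well before compound.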

Chain of human ether-à-go-go-related gene (hERG) potassium channel (Q12809 whole entry, looked up): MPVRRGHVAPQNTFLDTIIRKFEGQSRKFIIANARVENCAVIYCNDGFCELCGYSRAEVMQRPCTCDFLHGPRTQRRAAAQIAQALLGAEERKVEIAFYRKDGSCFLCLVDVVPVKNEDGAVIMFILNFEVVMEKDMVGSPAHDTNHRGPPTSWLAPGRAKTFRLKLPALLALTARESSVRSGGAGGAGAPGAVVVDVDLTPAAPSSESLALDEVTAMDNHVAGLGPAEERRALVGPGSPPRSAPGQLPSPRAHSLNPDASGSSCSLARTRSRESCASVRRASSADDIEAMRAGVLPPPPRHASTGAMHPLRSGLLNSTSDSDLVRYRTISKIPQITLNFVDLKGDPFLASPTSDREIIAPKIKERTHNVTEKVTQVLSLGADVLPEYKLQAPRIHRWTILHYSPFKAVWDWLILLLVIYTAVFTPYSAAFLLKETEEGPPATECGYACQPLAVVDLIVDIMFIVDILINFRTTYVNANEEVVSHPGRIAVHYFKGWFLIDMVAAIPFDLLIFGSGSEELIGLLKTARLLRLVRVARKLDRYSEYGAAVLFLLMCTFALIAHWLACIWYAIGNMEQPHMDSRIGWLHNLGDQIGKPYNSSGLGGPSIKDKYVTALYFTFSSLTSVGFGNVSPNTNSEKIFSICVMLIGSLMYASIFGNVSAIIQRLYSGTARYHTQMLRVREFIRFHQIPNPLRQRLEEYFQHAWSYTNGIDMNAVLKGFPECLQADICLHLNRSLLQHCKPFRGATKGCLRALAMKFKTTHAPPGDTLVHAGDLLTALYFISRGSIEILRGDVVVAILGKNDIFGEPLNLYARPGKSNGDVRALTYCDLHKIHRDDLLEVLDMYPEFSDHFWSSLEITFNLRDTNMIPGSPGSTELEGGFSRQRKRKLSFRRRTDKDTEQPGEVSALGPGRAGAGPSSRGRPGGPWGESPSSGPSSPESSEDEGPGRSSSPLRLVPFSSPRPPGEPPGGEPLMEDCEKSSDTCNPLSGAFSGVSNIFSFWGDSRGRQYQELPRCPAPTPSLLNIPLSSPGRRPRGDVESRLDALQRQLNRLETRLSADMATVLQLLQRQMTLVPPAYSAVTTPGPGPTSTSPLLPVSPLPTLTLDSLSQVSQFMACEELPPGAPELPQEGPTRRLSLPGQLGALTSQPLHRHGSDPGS

Row | Structure (SMILES) | hERG current change (%, negative = inhibition) at 10uM
1 | NC(=O)CCC(NC(=O)c1ccc(Cl)cc1)C(=O)O (stereo not shown) | 5.66%
2 | CCN1CCN(C(=O)C2CCN(S(=O)(=O)c3ccc(SC)cc3)CC2)CC1 | 11.6%
3 | COc1cccc(C(C#N)N2N=C(C)CC2(C)C)c1O (stereo not shown) | 17.4%
4 | COc1ccc(N(CC(=O)N2CCN(c3ccc(Cl)cc3)CC2)S(=O)(=O)c2c(C)n[nH]c2C)cc1 | -10.1%
5 | Cn1c(=O)c(C(=O)CSc2nncs2)c(N)n(Cc2ccccc2)c1=O | 18%
6 | COc1c(/C=N/Nc2nc(N3CCCCC3)nc(N3CCCCC3)n2)cccc1[N+](=O)[O-] | -6.19%
7 | O=C(CCNS(=O)(=O)c1ccc2[nH]c(=O)oc2c1)NCc1ccc(F)cc1 | 12.7%
8 | CN1CC=C2C(C#N)=C(N)C(C#N)(C#N)C(c3ccsc3)C2C1 (stereo not shown) | -4.62%
9 | Cc1cccc(/N=C/C2=C(O)CC(C)(C)CC2=O)n1 | 13.2%
10 | CNC(=O)C1(C(F)(F)F)C/C(=C\CCO)CCCO1 (stereo not shown) | 8.94%
11 | CCCSc1nc(C)c(C(C)=O)cc1C#N | 5.28%
12 | O=C(NCCCc1ccccn1)C1CCC(=O)N(Cc2cccc(F)c2)C1 (stereo not shown) | 4.5%
13 | Cc1cc(C=C2C(=O)N(C)C(=S)N(C)C2=O)c(C)n1C1CCCCC1 | 7.42%
14 | CCN1CCN(c2cc(C)c3cc(NC(=S)N4CCN(c5ccccc5F)CC4)ccc3n2)CC1 | -16.1%
15 | Cc1ccc(NC(=O)C2CCN(S(C)(=O)=O)CC2)c(C)c1 | 13.8%
16 | Cc1ccc(S(=O)(=O)NCCC(=O)N2CCCCCCC2)cc1C | -30.9%
17 | Cc1cc(C)cc(NC(=O)CCC(=O)N2CCSc3ccccc32)c1 | -0.364%
18 | CC(=O)NCCc1c[nH]c2ccccc12 | 4.81%
19 | Cc1nn(Cc2c(F)cccc2Cl)c(C)c1[N+](=O)[O-] | 9.63%
20 | Cc1cc(N2CCN(c3ccccc3)CC2)nc(N)n1.Cl | -42.9%
21 | CC(C)CNC(=S)N1CCC(C(=O)c2ccc(F)cc2)CC1 | -61.4%
22 | COc1cccc(-c2nn(-c3ccccc3)cc2C(=O)OCC(=O)Nc2ncc(Cl)cc2Cl)c1 | -22.2%
23 | CC1CC(C)CN(C(=O)CCn2c(=O)oc3ccccc32)C1 (stereo not shown) | 15.9%
24 | O=C(CNc1cccc(Cl)c1)c1ccc(Br)cc1 | 19.6%
25 | COc1ccccc1C(=O)NC(CCSC)C(=O)NCCCSc1ccccc1 (stereo not shown) | -36.5%
